The whole screen tested about 350,000 compounds, of which about 9,900 (2.8%) were called active. The shares of active, inactive and inconclusive entries below differ from those in the screen. Calls follow the shape of the dose curve; as a rule, active = well fitted activation curve with a large enough effect; inconclusive = small, poorly fitted or top-dose-only effect; inactive = no such curve, though single readings can be large or run the other way. Potencies of inconclusive entries are left out as doubtful fits.
Test: A quantitative high throughput screen for small molecules that induce DNA re-replication in MCF 10a normal breast cells. Also: nearly all actives have a fitted effect of over 50% in size. As to activity, positive = re-replication: % of control where 0% means no effect.
Conditions: MCF 10A DNA re-replication, Hoechst nuclear intensity, 48 h; activity, positive = re-replication: at 46.1 µM (top of the series)
Potency is read from the fitted curve at half-maximal effect; tags tell the direction and shape of the fitted curve.

SMILES	activity, positive = re-replication	Potency
COc1ccccc1N1CC(C(=O)Nc2ccc(S(=O)(=O)N3CCOCC3)cc2)CC1=O (stereo not drawn)	inactive: -0.803%	
Cc1cccc(-n2c(SCC(=O)NCc3ccc4c(c3)OCO4)nc3ccccc3c2=O)c1	inactive: 18.5%	
[N-]=[N+]=NCC/C=C\C1NS(=O)(=O)OCC1O (stereo not drawn)	inactive: 3.4%	
CC1=NN(C(=O)c2csc(C)c2)C(O)(C(F)(F)F)C1 (stereo not drawn)	inactive: -0.319%	
O=C(Nc1ccc(N2CCCC2)cc1)c1cc([N+](=O)[O-])ccc1N1CCOCC1		inconclusive [activator, single point]
CSc1ccc(CN(C)C(=O)C(c2ccccc2)c2ccccc2)cc1		inconclusive [activator, single point]
COC(=O)c1ccc(Oc2nc(NC(C)C)nc(NC(C)C)n2)cc1	inactive: 12.5%	
O=S(=O)(CCSc1ccccn1)c1nc2ccccc2s1		inconclusive [activator, partial curve, poor fit]
Cc1ccc(Nc2nc(CSc3nnc(-c4ccc(F)cc4)n3C)cs2)cc1	inactive: 13.2%	
O=S(=O)(NCC1CCCO1)c1ccc2ccccc2c1 (stereo not drawn)		active: 2.91 µM
O=C(COc1ccccc1F)Nc1nc(-c2ccccn2)cs1	inactive: 18%	
O=C(Nc1ccc(F)cc1)c1ccccc1S(=O)(=O)c1ccccc1[N+](=O)[O-]	inactive: -10.5%	
COc1cccc(-c2nn(C)c3sc(C(=O)Nc4ccc5c(c4)OCCO5)cc23)c1		inconclusive [activator, full curve]
O=C(CN1C(=O)C2CCCCC2C1=O)Nc1cc(C(F)(F)F)ccc1N1CCCC1 (stereo not drawn)	inactive: 3.55%	
CCc1c(O)nc(SCC(=O)N2CCc3cc(OC)c(OC)cc3[C@@H]2C)[nH]c1=O	inactive: -3.09%	
Cc1ccsc1CN(C)CC(=O)Nc1cccc(S(=O)(=O)N(C)c2ccccc2)c1		inconclusive [activator, single point]
CCOc1ccc(/C=N/NC(=O)c2[nH]ncc2Br)c(O)c1		inconclusive [activator, single point]
CCc1ccc2nc(SCC(=O)Nc3ccccc3N3CCOCC3)c(C#N)cc2c1		active: 3.66 µM
Cn1c(COc2cccc3ccccc23)nnc1SCC(=O)OC1CCCCC1		inconclusive [activator, single point]
COc1ccc(/C=N\NS(=O)(=O)c2ccc(Cl)cc2)cc1COc1ccccc1[N+](=O)[O-]		inconclusive [activator, partial curve]
COCC(=O)N(CCc1ccc(OC)c(OC)c1)Cc1cc2cc(C)ccc2nc1Cl	inactive: 21.6%	
O=C1CN2C(=Nc3ccc(Cl)cc3C2c2ccccc2)CN1 (stereo not drawn)	inactive: -3.16%	
CCN(C(=O)COC(=O)c1cc(-c2cccs2)nc2ccccc12)C1CCS(=O)(=O)C1 (stereo not drawn)		inconclusive [activator, single point]
COc1cc(NC(=O)C2CCN(S(=O)(=O)c3ccc4c(c3)CC(C)N4C(C)=O)CC2)cc(OC)c1OC (stereo not drawn)		inconclusive [activator, partial curve, poor fit]

SMILES	activity, positive = re-replication	Potency
COc1ccc(-c2nc(C#N)c(N3CCC(C)CC3)o2)cc1	inactive: 17%	
O=C(N/N=C/c1ccc[nH]1)c1cc(-c2ccc(Cl)cc2)nc2ccccc12		inconclusive [activator, single point]
COc1ccc(CN(C)C(=O)c2oc3ccccc3c2CSC)cc1F		inconclusive [activator, single point]
CC1(C)Cc2nc3sc4c(=O)n(CC(=O)NCc5ccco5)cnc4c3cc2CO1		active: 9.2 µM
CCO[C@H]1OC(C(=O)NCc2ccccc2)=C[C@@H](c2ccc3c(c2)OCO3)[C@@H]1CCCO		inconclusive [activator, full curve, poor fit]
Cc1cc(C)n(-c2ccc(C(=O)Nc3cccnc3)cc2)n1	inactive: -6.39%	
COCC(C)n1c(SCc2ccc(C(=O)OC)cc2)nc2ccccc2c1=O (stereo not drawn)		inconclusive [activator, full curve, poor fit]
Cc1ccc(S(=O)(=O)Nc2ccc(-c3csc(-c4ccccc4)n3)cc2)cc1		active: 11.6 µM
CCCCCSc1nnc2c(n1)OC(C)N(C(C)=O)c1ccccc1-2 (stereo not drawn)	inactive: -1.11%	
O=c1c2ccccc2[nH]c(=S)n1Cc1ccc2c(c1)OCO2		inconclusive [activator, single point]
CCNc1ccc(Br)cc(C(=O)/C=C/c2ccc3c(c2)OCO3)c1=O		active: 18.4 µM
COC(=O)c1cccc(CSc2nc(-c3ccccc3)c(C#N)c(=O)[nH]2)c1		inconclusive [activator, single point]
O=C(N/N=C/c1ccccc1[N+](=O)[O-])c1ccc2nc[nH]c2c1	inactive: -1.65%	
CC(C)CCN1CCN(Cc2nc3c(s2)CCCC3)CC1CCO (stereo not drawn)		inconclusive [activator, full curve, poor fit]
COC(=O)c1ccc(C(=O)OC)c(NS(C)(=O)=O)c1		inconclusive [activator, single point]
COc1ccc(/C=N/NC(=O)c2cccnc2)cc1CSc1nc2ccccc2s1		inconclusive [activator, partial curve, poor fit]
Cc1ccc(C(=O)/C=C/c2ccc(-c3ccc(C)cc3)o2)cc1		active: 20.6 µM
CCOc1c(N2CC(C)OC(C)C2)c(=O)c1=O (stereo not drawn)		inconclusive [activator, partial curve, poor fit]
CCc1nnc(NC(=O)c2cc(-c3ccco3)nc3ccccc23)s1		inconclusive [activator, partial curve, poor fit]
CCOC(=O)N1CCN(C(=O)CN(c2ccc(Cl)c(C(F)(F)F)c2)S(C)(=O)=O)CC1	inactive: 17.9%	
C[C@@H]1C=C(C(=O)N2CCN(Cc3ccccc3)CC2)O[C@H](OCc2ccc(CO)cc2)C1	inactive: -7.99%	
OCCC1CN(C2CSCCSC2)CCN1Cc1ccccc1 (stereo not drawn)	inactive: -5.83%	
Cc1cc(C)c[n+](C(C)C(=O)c2ccc(-c3ccccc3)cc2)c1 (stereo not drawn)	inactive: 3.56%	
COc1ccc(NC(=O)c2sc3nc(N4CCOCC4)c4c(c3c2N)CC(C(C)C)OC4)c(OC)c1 (stereo not drawn)	inactive: 5.6%	

— PubChem BioAssay AID624296 (National Center for Advancing Translational Sciences (NCATS), 2012)
